Laboratory results: the BET-seq Pho4 binding data (Le et al. 2018)
The other results are listed elsewhere or left out. Values were computed here from the reads of four pooled replicates and scatter widely.

The sequences below were run against T1, Pho4 (S. cerevisiae) (UniProt P07270) (assay: relative binding free energy (BET-seq); higher = weaker binding). Conditions: reference: library average.
T1 sequence: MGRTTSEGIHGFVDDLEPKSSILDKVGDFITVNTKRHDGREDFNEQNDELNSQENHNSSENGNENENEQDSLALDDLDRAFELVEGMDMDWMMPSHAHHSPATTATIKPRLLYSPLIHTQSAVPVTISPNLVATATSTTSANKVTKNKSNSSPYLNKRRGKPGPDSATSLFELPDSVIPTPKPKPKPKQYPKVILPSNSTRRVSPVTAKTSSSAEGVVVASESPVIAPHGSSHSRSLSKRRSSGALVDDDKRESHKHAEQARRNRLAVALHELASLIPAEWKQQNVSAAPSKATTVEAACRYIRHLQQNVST

Sequence	relative binding free energy [kcal/mol]
GAGTCCACGTGGCGGT	0.08
GAGGCCACGTGGTGGT	-0.09
TTCGGCACGTGTAGAT	0.05
TGATGCACGTGTTTTA	0.05
GTGGGCACGTGTCAAA	0.04
TAGGACACGTGGATCG	0.08
CGCATCACGTGGAGGG	0.17
GGGTGCACGTGGGTTT	-0.04
ACAGACACGTGGGGGA	-0.11
CTATGCACGTGGGGGC	-0.2
GTGGGCACGTGACATT	0
TTGGTCACGTGGTCTT	0.07
TATAACACGTGTTAGT	-0.08
TTTTACACGTGGTTTG	0.12
TTAAGCACGTGTATTG	-0.13
CTTTTCACGTGTGAGG	0.3
TGTGGCACGTGCATAT	-0.27
TCAGTCACGTGTTCGG	0.08
TAGAGCACGTGGAGGA	-0.2
ATATGCACGTGAGGGA	0.14
AATGACACGTGTTTTG	-0.1
AGGCTCACGTGAGTTG	0.32
TGTGACACGTGATCGG	0.08
TGGCTCACGTGGCGGG	0.15
TTATTCACGTGAATTA	0.29
TAAAGCACGTGTTATA	0.05

Sequence	relative binding free energy [kcal/mol]
TATATCACGTGAAATG	0.25
ATAATCACGTGTGGGA	0.24
TTTTACACGTGGCTTA	-0.02
TGGGACACGTGTGGAG	0.19
TTGATCACGTGGTATT	0.08
TAATGCACGTGTCATT	-0.08
CAAGGCACGTGCGTGG	-0.32
AAGGGCACGTGTCTTT	-0.12
TATATCACGTGTATTG	0.04
TGCTTCACGTGTTAGA	0.41
TTTAACACGTGATAGG	0.19
TAGGTCACGTGTCGAG	0.17
CTGTGCACGTGTGTAT	0.01
CGGGGCACGTGGGTTG	-0.19
ATGGCCACGTGTGTGT	-0.08
TAGTACACGTGGGGGT	-0.1
TGATGCACGTGAGAAG	0.32
TTGATCACGTGAACGT	0.24
TGGGACACGTGTTTGC	-0.13
AGTGGCACGTGAGTAC	0.13
GTTGACACGTGATATA	0.12
TCGTTCACGTGGTGCA	0.22
AAGTTCACGTGTCGTA	0.23
TATTTCACGTGTCGGA	0.33
GTGTGCACGTGAATGA	0.31
TTGGTCACGTGAACAG	0.4

Sequence	relative binding free energy [kcal/mol]
GTGATCACGTGTTAGC	0.2
AATTGCACGTGTGAGT	0.06
GAGAGCACGTGATTTG	0.32
AGTGTCACGTGAAAGT	0.1
GATTTCACGTGTGTAT	0.32
TTACTCACGTGTATTG	0.15
AGGCTCACGTGGGGCG	0.07
ATTGGCACGTGGGATA	-0.14
AGTGTCACGTGTCGAG	0.11
GGATTCACGTGATTGT	0.42
TAGGTCACGTGACTTG	0.32
TGGGGCACGTGATTTA	0
GGCTTCACGTGTAATG	0.31
ATTGTCACGTGGAGGA	0.22
AGTGGCACGTGCGGCG	-0.18
AGGTGCACGTGCTGGG	-0.05
TTTAACACGTGGCGGA	-0.08
CTGTTCACGTGTGGAT	0.29
TGACTCACGTGTTGAG	0.28
AGTGCCACGTGGTAGT	-0.18
CGAAGCACGTGGTGAT	0.01
GTTGCCACGTGGTTTG	-0.14
GACATCACGTGGGGTG	-0.13
GTGATCACGTGAAGTT	0.39
GGGCACACGTGCTTGT	0.11
TGGGTCACGTGTCGAA	0.07

Sequence	relative binding free energy [kcal/mol]
TGGCTCACGTGGAGGT	0.18
TTTGACACGTGGTAAC	0.18
ATGAGCACGTGGGGGA	-0.25
TGCCGCACGTGATTGG	0.05
CAAGGCACGTGGTTGT	-0.18
TAAGGCACGTGTTGGA	-0.04
TGTCTCACGTGGGCTT	0.1
GTTAACACGTGCAGAT	0.24
TTTTACACGTGTTGTT	0.07
TATGTCACGTGCCTTG	0.03
TTTAGCACGTGGAAAG	-0.08
AATTACACGTGGGGGT	-0.01
AGCGTCACGTGTATTT	0.08
TTTGTCACGTGAAGCG	0.37
TGATACACGTGGTGCT	-0.12
TTCGTCACGTGTAATT	0.26
AGCTACACGTGTGGGT	0.12
AGCGGCACGTGTCAGG	-0.16
CGTTACACGTGTGTAG	0.04
AGGTCCACGTGGCTGG	-0.06
GGGTGCACGTGCTTGA	-0.05
ATGGGCACGTGGTGGT	-0.19
TGTGACACGTGCATGG	-0.14
GTTGGCACGTGAAATA	0.22
TGAGTCACGTGGACGG	0.15
TGTTCCACGTGTCGGG	0.07

Sequence	relative binding free energy [kcal/mol]
GCATTCACGTGAGTAT	0.51
AAGTTCACGTGGGTAA	0.1
TTATACACGTGAGTAG	0.31
CGGTGCACGTGAAGAT	0.23
AGAACCACGTGGGTGT	-0.17
GGGTACACGTGTGGCG	0.08
TAGGACACGTGTGTGA	-0.02
GGTCGCACGTGGTGAT	-0.2
CTCGGCACGTGATGGG	-0.01
GTTATCACGTGGTCAG	0.05
GTAGGCACGTGCGTTG	-0.19
TTGGGCACGTGCGATG	-0.09
TGTGACACGTGGGCCA	-0.05
CGTAACACGTGTGATG	0.11
GAGAGCACGTGATTTT	0.13
TTAAACACGTGGGCGT	-0.21
TATGTCACGTGGTCGA	-0.06
TGGTACACGTGGAGAG	0.14
TGATTCACGTGCGCGG	0.21
TGAATCACGTGGTCGG	-0.08
CGTGGCACGTGGAGAG	0.04
AAGGTCACGTGTGCTG	0.11
TATGGCACGTGGAGCT	-0.07
GAGTACACGTGGGGTC	-0.12
AGACGCACGTGGGATG	-0.3
GGGTGCACGTGATAAG	0.23

Sequence	relative binding free energy [kcal/mol]
GGGAACACGTGGATGT	0.09
GAGGTCACGTGTGGAA	0.24
AGGGTCACGTGGTAAT	0.18
AATGCCACGTGGTTGT	-0.13
TCGATCACGTGGTTGT	0.16
CTTGGCACGTGTGGCA	-0.15
AGTGGCACGTGCGTGT	-0.18
TGCTACACGTGGGATG	0.02
TGAGGCACGTGAAGCT	0.18
TTATCCACGTGGTTTG	0
CGTGACACGTGGGATG	-0.08
ATTATCACGTGTGTAA	0.27
GGCAGCACGTGGGCTG	-0.33
AGGTGCACGTGATTCG	0.16
GCGAGCACGTGTGGTT	0.01
AAGGCCACGTGTATGT	-0.05
AGATTCACGTGGCAGG	0.15
CTAATCACGTGTGGTA	0.12
GGACGCACGTGGAAGT	0.13
TCGGTCACGTGCGTGT	-0.06
ATGGTCACGTGTTGTC	0.16
CCTTTCACGTGGGCGT	0.26
GGTGTCACGTGGAGAT	0.12
GGGAACACGTGGAGCG	0.04
AAAGGCACGTGAGCTG	0.06
AGGGTCACGTGTTGAA	0.17

Sequence	relative binding free energy [kcal/mol]
TGAGACACGTGGGGCA	-0.2
CGATTCACGTGGATTT	0.43
AATTTCACGTGTCTGG	0.27
TAATACACGTGTTTTG	0
TAAGGCACGTGTTGGT	-0.07
CTTTACACGTGTTATG	0.12
AGGTCCACGTGTCTGG	0.1
TTTTTCACGTGGGCCT	0.16
TAATACACGTGGGGTC	-0.16
CGTGCCACGTGGTATG	-0.17
CGGTACACGTGGTTGG	0.03
ACGTTCACGTGATGGA	0.28
ATGTTCACGTGTCGAG	0.09
GTTGGCACGTGAAAAG	0.06
GAACGCACGTGGGGGG	-0.27
AATTGCACGTGCGGGT	-0.07
CTATACACGTGATGGG	0.26
GGCTGCACGTGTGAGG	0.1
TCTTACACGTGTTGTA	0.19
TTGAGCACGTGTAAGG	0.02
CTTGACACGTGTTATG	0.08
TAATTCACGTGATTGC	0.35
TTTTCCACGTGAGTCG	0.19
ATAGTCACGTGTTGAG	0.17
TTAGGCACGTGGTACT	-0.19
TTGGACACGTGTTTAA	0.14

Sequence	relative binding free energy [kcal/mol]
CTAGTCACGTGGCTTT	0.18
AATTGCACGTGTAGGA	0.1
AGTGCCACGTGTGATG	-0.13
TTGAACACGTGTATTG	0.04
GCTGTCACGTGTGAAT	0.38
TTGTACACGTGTTTGT	0.03
GTATGCACGTGCGGGA	-0.1
AGGGGCACGTGTAGTC	-0.01
TATGTCACGTGTGGCC	0.04
TTTGGCACGTGCTAGT	-0.27
AGTTGCACGTGTGTGC	-0.01
TGCATCACGTGAGGTA	0.32
TGAGACACGTGAGTTG	0.32
AATGACACGTGGGATT	0.07
GAGAACACGTGGGGTG	-0.14
ATGAGCACGTGGGTCG	-0.1
ATTGCCACGTGGGGGA	-0.3
ATGCGCACGTGAGTTT	0.02
TGGGGCACGTGCTTGG	-0.14
TATTTCACGTGAGAAG	0.32
GTGCTCACGTGGTGGT	0.25
TAATGCACGTGTGTGA	-0.05
AGAGGCACGTGGAGTT	-0.06
AGGTTCACGTGAATGG	0.29
GGAGGCACGTGATTCG	-0.01
ATGTGCACGTGTGGGA	-0.01

Sequence	relative binding free energy [kcal/mol]
CAGGCCACGTGGGCGT	-0.21
TCGGGCACGTGGTCTG	-0.32
TGGATCACGTGGATTT	0.3
GATTGCACGTGGGCGG	-0.09
TTATGCACGTGCTGTA	-0.08
GAGAGCACGTGTAGAG	0.08
TTTATCACGTGGTTCT	0.14
GGGTCCACGTGGTTGA	0.04
TAAGGCACGTGGTGTT	-0.24
TAGAACACGTGCGTGG	-0.1
GGTTGCACGTGCAGGT	0.02
GGGATCACGTGAGGAG	0.42
GTTGTCACGTGAGTTA	0.29
TATATCACGTGTAAGG	0.13
AAATTCACGTGAGTAT	0.38
GGGGACACGTGGTAGT	0
GGAGTCACGTGGTTTA	0.02
TTTGACACGTGGAGCT	-0.02
GGGTACACGTGGCGTA	0.02
GGGAACACGTGGTCTG	-0.06
ATACTCACGTGTGTTT	0.13
TGAGTCACGTGTTACT	0.13
